Reference: PubChem BioAssay AID485364 (National Center for Advancing Translational Sciences (NCATS), 2010)
Screen size: about 360,000 compounds; about 11,000 (3.1%) were called active. Inconclusive means that the source gave no clear call. Such entries were picked first, then a sample of the others. Calls come from the whole dose curve; as a rule, active = well fitted inhibition curve with a large enough effect; inconclusive = small, poorly fitted or top-dose-only effect; inactive = no such curve, though single readings can be large or run the other way. No potency is given beside an inconclusive call; the fits are too rough.
Note: nearly all actives have a fitted effect of over 60% in size.
Potency is the fitted concentration of half-maximal effect; tags give direction and shape of the fitted curve.

These molecules were tested against Schistosoma mansoni thioredoxin glutathione reductase (TGR) (UniProt Q962Y6) (assay: qHTS Assay for the Inhibitors of Schistosoma Mansoni Peroxiredoxins). Settings: purified TGR, DTNB reduction, TNB absorbance 405 nm; series mostly up to 114 µM.
Outline: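 First, TGR (20 nM dispensed) and NADPH were mixed with compound. Second, a 15 min room-temperature incubation followed. Third, further NADPH and then DTNB were added to start the reaction. Finally, TNB absorbance was monitored kinetically.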
`CC(C)(C)C(=O)Nc1c2c(nn1-c1ccccc1)CSC2` was tested, and the Potency was inconclusive [inhibitor, partial curve, poor fit]. `COc1ccc(-c2nc(Cn3c(SCc4cccc(F)c4)nc4ccncc43)c(C)o2)cc1OC` was tested, and the Potency was inconclusive [inhibitor, partial curve]. For `COc1ccc(CNc2nc(-c3ccccc3)nn2S(=O)(=O)c2ccccc2)cc1`, the Potency was “inactive”. For `O=C(O)c1ccccc1C(=O)N1CCN(c2cccc(Cl)c2)CC1`, the Potency was inconclusive [inhibitor, partial curve]. `Cc1ccnc(NC(=O)CCC(=O)N(CC(=O)NCc2ccc(F)cc2)Cc2ccccc2)c1` was tested, and the Potency was “inactive”. For `COc1cc(OC)c(OC)cc1CN1CCc2nc(Nc3ccc4c(c3)OCCO4)ncc2C1`, the Potency was inconclusive [inhibitor, partial curve]. `CC(=O)Nc1ccc(NC(=O)C(OC(=O)c2ccccc2)C(OC(=O)c2ccccc2)C(=O)O)cc1` (stereo not drawn) was tested, and the Potency was inconclusive [inhibitor, partial curve]. For `COCCCNC(=S)N/N=C/c1ccc(O)cc1`, the Potency was “inactive”. In the case of `COc1cccc(CN2CCN(C(=O)C3CCC(=O)N(C4CCCC4)C3)CC2)c1` (stereo not drawn), the Potency is reported as inconclusive [inhibitor, partial curve]. In the case of `Cc1ccc(Cc2nc(-c3ccccn3)no2)cc1`, the Potency is reported as “inactive”. In the case of `CCN(c1cccc(C)c1)S(=O)(=O)c1ccc(-n2cccn2)cc1`, the Potency is reported as inconclusive [inhibitor, single point]. For `OC(CNC1CCCCC1)CN1CCN(CC(O)CNC2CCCCC2)CC1` (stereo not drawn), the Potency was “inactive”. `CC(C)CC1NC(=O)N(CC(=O)Nc2ccccc2-c2ccccc2)C1=O` (stereo not drawn) was tested, and the Potency was active: 2.24 µM. In the case of `O=C(CSc1nc(-c2ccccc2)c(-c2ccccc2)[nH]1)N1CCN(S(=O)(=O)c2ccccc2)CC1`, the Potency is reported as “inactive”. `CC1CCc2sc(NC(=S)NC(=O)c3ccccc3)c(C#N)c2C1` (stereo not drawn) was tested, and the Potency was inconclusive [inhibitor, full curve, poor fit]. `O=C(CC(c1ccccc1)c1ccco1)N1CCCCC1` (stereo not drawn) was tested, and the Potency was inconclusive [inhibitor, full curve]. In the case of `CCCCCCSc1nnc(-c2cnn(-c3ccccc3)c2-n2cccc2)n1C`, the Potency is reported as “inactive”. For `NS(=O)(=O)c1ccc(CCNC(=S)Nc2ccccc2)cc1`, the Potency was inconclusive [inhibitor, partial curve]. In the case of `C[Se]C[C@@H](N)C(=O)O`, the Potency is reported as inconclusive [inhibitor, partial curve]. With `c1ccc2cc(CN3CCOCC3)ccc2c1` the Potency was inconclusive [inhibitor, single point]. With `CC1CCc2sc(C(=O)NNC(=S)NC3CC3)cc2C1` (stereo not drawn) the Potency was “inactive”. In the case of `CC(=O)c1cccc(N2Cc3ccccc3C2=NC(=O)CCl)c1`, the Potency is reported as active: 17.8 µM. For `CN1C(=O)N(C)C(=O)C2(Cc3cc(NC(=O)c4ccccc4Cl)ccc3N3CCCC32)C1=O` (stereo not drawn), the Potency was inconclusive [inhibitor, full curve]. With `COC(=O)c1ccc(C2C(C(=O)c3ccc(C)o3)=C(O)C(=O)N2c2cc(C)on2)cc1` (stereo not drawn) the Potency was inconclusive [inhibitor, partial curve]. With `C#CCNC(=O)C1=C[C@@H](C2CCCCC2)C[C@@H](OCCCCO)O1` the Potency was active: 12.6 µM. With `CCOc1ccc(NC(=O)CN(C)C(=O)/C=C/c2ccco2)cc1OCC` the Potency was inconclusive [inhibitor, partial curve]. For `Cn1c(-c2ccccc2)c(/C=N/NC(=O)c2cccnc2)c2ccccc21`, the Potency was inconclusive [inhibitor, single point]. For `CCCCCCN(C(=O)CCCCCN1C(=O)NC(c2ccc(-c3ccccc3)cc2)C(C(=O)OCc2ccccc2)=C1C)C(C(=O)NCCCC)c1ccccn1` (stereo not drawn), the Potency was inconclusive [inhibitor, partial curve]. For `Cc1ccc(NC(=O)CSc2nc3c([nH]c4ccccc43)c(=O)n2-c2ccccc2)cc1Cl`, the Potency was inconclusive [inhibitor, partial curve]. For `Cc1ccc(C)c(N(CC(=O)NCc2ccc3c(c2)OCO3)C(=O)CCC(=O)Nc2ccccn2)c1`, the Potency was inconclusive [inhibitor, single point]. In the case of `Cc1ccccc1CNC(=O)Cc1ccc(NC(=O)N2CCCCc3ccccc32)cc1`, the Potency is reported as “inactive”. In the case of `O=S(=O)(CCc1ccncc1)c1ccc(Cl)cc1`, the Potency is reported as inconclusive [inhibitor, partial curve]. For `CC1=CC(=Nc2c(C)n(C)n(-c3ccccc3)c2=O)C=C(C)C1=O`, the Potency was active: 50.1 µM. For `O=C(NCc1cccnc1)C(=O)Nc1nccs1`, the Potency was “inactive”. For `COc1ccccc1CNc1nc(-c2ccco2)nn1C(=O)c1cc(OC)c(OC)c(OC)c1`, the Potency was inconclusive [inhibitor, full curve, poor fit]. `COc1ccccc1N1CCN(C(=O)c2cnn(-c3cccc(Cl)c3)c2C2CCN(C(=O)OC(C)(C)C)CC2)CC1` was tested, and the Potency was “inactive”. `CCOCCCNC(=S)Nc1ccc(Br)cc1Cl` was tested, and the Potency was inconclusive [inhibitor, partial curve, poor fit]. With `CCOc1ccccc1C(=O)NCC(=O)NCC(c1ccc(OC)cc1)N1CCOCC1` (stereo not drawn) the Potency was inconclusive [inhibitor, partial curve]. `CNc1ccc(Br)cc(C(=O)/C=C/c2ccc(OC)cc2OC)c1=O` was tested, and the Potency was inconclusive [inhibitor, full curve]. For `CC(=O)NC1CCCN(O)C(=O)/C=C(\C)CCOC(=O)C(NC(C)=O)CCCN(O)C(=O)/C=C(\C)CCOC(=O)C(NC(C)=O)CCCN(O)C(=O)/C=C(\C)CCOC1=O` (stereo not drawn), the Potency was inconclusive [inhibitor, partial curve]. `COc1cc(N2CCCC2)c(OC)cc1/C=C(/C#N)c1ccc(Br)cc1` was tested, and the Potency was “inactive”. With `Cn1nc(-c2ccccn2)nc2c(=O)n(C)c(=O)nc1-2` the Potency was inconclusive [inhibitor, full curve]. `CCCCNC(=O)CSc1nnc(Cc2ccccc2)n1CC` was tested, and the Potency was inconclusive [inhibitor, single point]. For `Cc1c(NC(=S)NC(=O)CSc2ccc(Cl)cc2)cccc1C(=O)O`, the Potency was inconclusive [inhibitor, full curve]. For `CC(NC(=O)Cc1cccc2ccccc12)C(=O)N1CCC(=O)CC1` (stereo not drawn), the Potency was inconclusive [inhibitor, partial curve]. For `CC(C)(C)c1ccc(/C=N/NC(=O)Cc2c[nH]c3ccccc23)cc1`, the Potency was “inactive”. For `Cc1ccc(S(=O)(=O)CCC(=O)Nc2nc(-c3ccncc3)cs2)cc1`, the Potency was inconclusive [inhibitor, full curve, poor fit]. With `COC(=O)C1=C(C)NC(=O)NC1c1ccc(N2CCC(c3ccccc3)=N2)cc1` (stereo not drawn) the Potency was inconclusive [inhibitor, partial curve, poor fit]. In the case of `CCN(CC)CCCN1C(=O)C(=O)/C(=C(/O)c2ccc3c(c2)OCCO3)C1c1ccc(C)o1` (stereo not drawn), the Potency is reported as active: 50.1 µM. For `CC(C)CCN1C(=O)c2ccc(C(=O)Nc3c[nH]c(=O)[nH]c3=O)cc2C1=O`, the Potency was inconclusive [inhibitor, single point]. In the case of `Cc1csc(=Nc2ccccc2)n1CCCN1CCCC1=O`, the Potency is reported as “inactive”. For `Nc1nc(COc2ccc3ccccc3c2)cs1`, the Potency was “inactive”. `CN1CCN(c2c(F)cc3c(=O)c(C(=O)O)cn4c3c2OCN4C)CC1` was tested, and the Potency was “inactive”. For `CC(=O)c1ccc2c(c1)C1C=CCC1C(c1ccc(S(=O)(=O)N3CCOCC3)cc1)N2` (stereo not drawn), the Potency was active: 28.2 µM. For `c1ccc(COC2CCCN(Cc3nc(-c4cnccn4)no3)C2)nc1` (stereo not drawn), the Potency was inconclusive [inhibitor, partial curve]. `CCC(=O)Nc1cccc(C2=NOC3(C2)C[C@@H](C(N)=O)N(C(=O)CC(c2ccccc2)c2ccccc2)C3)c1` (stereo partly drawn) was tested, and the Potency was “inactive”. With `COc1ccccc1NC(=O)c1sc2nc(-c3ccco3)ccc2c1N` the Potency was inconclusive [inhibitor, full curve, poor fit]. With `O=C(OCC(=O)N1CCOCC1)c1ccc(F)cc1Cl` the Potency was “inactive”. For `CC(=O)NC(Cc1ccccc1F)C(=O)NC1CCN(C(=O)c2cnccn2)CC1` (stereo not drawn), the Potency was inconclusive [inhibitor, partial curve, poor fit]. `CCN(CC)c1ccc(NS(=O)(=O)c2cn(C)c(=O)n(C)c2=O)c(C)c1` was tested, and the Potency was inconclusive [inhibitor, partial curve]. For `COc1ccc(C(=O)/C(=C\c2ccco2)N2C=CC=CC2=C(C#N)C#N)cc1`, the Potency was inconclusive [inhibitor, full curve, poor fit]. For `COc1ccc(-c2cn3c(n2)sc2cc(C(=O)NCC(C)c4ccccc4)ccc23)cc1` (stereo not drawn), the Potency was active: 79.4 µM. In the case of `Cc1ccc(CNC(=O)Cn2cnc3c(NC(=O)OCc4ccccc4)ncnc32)o1`, the Potency is reported as inconclusive [inhibitor, partial curve]. For `COc1ccccc1CNC(=O)[C@@H](NC(=O)C1CCN(C(=O)[C@@H]2CCCN2)CC1)C(C)C`, the Potency was inconclusive [inhibitor, full curve, poor fit]. In the case of `Cn1c(CNc2ccc(Cl)cc2)nnc1SCC#N`, the Potency is reported as inconclusive [inhibitor, single point]. `CC(=O)c1cccc(NC(=O)CCS(=O)(=O)c2ccc3c(c2)n(C)c(=O)c(=O)n3C)c1` was tested, and the Potency was inconclusive [inhibitor, partial curve]. `Cc1nc(CCNC(=O)CC2C(=O)NCCN2Cc2ccc(F)cc2)sc1C` (stereo not drawn) was tested, and the Potency was active: 20 µM. In the case of `OC(CCN1CCCCC1)c1ccc(-c2ccccc2)cc1` (stereo not drawn), the Potency is reported as “inactive”.
